The values below come from the supplement of paper PMC4604168 (melanoma cell lines).

The list shows a part of the results. Single values are uncertain, as repeats are few or missing.
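Note: cells treated in 1,536-well plates, then fixed and DAPI-stained, with nuclei counted from automated high-throughput microscope images.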

The subject of the first experiment is SkMel30. Description: cell count relative to DMSO control; melanoma cells; higher = more viable cells. Particulars: library dose: standard library concentration; 72 h.
As to `O=c1[nH]nc(Sc2ncc([N+](=O)[O-])s2)n1-c1ccc2c(c1)OCCO2` + c1cc(-c2cnn3cc(-c4ccc(OCCN5CCCCC5)cc4)cnc23)ccn1 [Dorsomorphin] (first compound 1 µM, partner dose 2 µM), the cell count is 98.1%.

`O=c1[nH]nc(Sc2ncc([N+](=O)[O-])s2)n1-c1ccc2c(c1)OCCO2` + COc1ccc2c(c1)CCC1C2CCC2(C)C(NCCCCCCN3C(=O)C=CC3=O)CCC12 [U73122] (first compound 1 µM, partner dose 2 µM) had a cell count of 96.5%.

Turning to `C[C@@H]1CCN(C(=O)CC#N)C[C@@H]1N(C)c1ncnc2[nH]ccc12` + Oc1nc(-c2ccc(C(F)(F)F)cc2)nc2c1CSCC2 [XAV939] (first compound 5 µM, partner dose 10 µM), the cell count was 90.7%.

Another experiment deals with SkMel5. The description is as above. Particulars: library dose: standard library concentration; 72 h.
In turn, `O=c1[nH]nc(Sc2ncc([N+](=O)[O-])s2)n1-c1ccc2c(c1)OCCO2` + COc1cc(N2CCC(N3CCN(C)CC3)CC2)ccc1Nc1ncc(Cl)c(Nc2ccccc2S(=O)(=O)C(C)C)n1 [NVP-TAE684] (first compound 1 µM, partner dose 0.4 µM) returned a cell count of 81.6%.

With `O=c1[nH]nc(Sc2ncc([N+](=O)[O-])s2)n1-c1ccc2c(c1)OCCO2` + N#Cc1c(O)c2c(-c3ccc(-c4ccccc4O)cc3)csc2[nH]c1=O [A769662] (first compound 1 µM, partner dose 10 µM), the cell count worked out at 81.2%.

As for `O=c1[nH]nc(Sc2ncc([N+](=O)[O-])s2)n1-c1ccc2c(c1)OCCO2` + O=c1cc(-c2cccc3c2Sc2ccccc2S3)oc(N2CCOCC2)c1 [KU55933] (first compound 1 µM, partner dose 5 µM), the cell count stood at 106%.

As to `O=C(Nc1cccc(Cl)c1)Nc1ncc(CCNc2ncnc3ccsc23)s1` + CC(C)CCN1c2nc(Nc3cc(F)c(O)c(F)c3)ncc2N(C)C(=O)C1C [BID1870] (first compound 0.004 µM, partner dose 1 µM), the cell count was 52.5%.

`Cn1cncc1[C@@](N)(c1ccc(Cl)cc1)c1ccc2c(c1)c(-c1cccc(Cl)c1)cc(=O)n2C` [tipifarnib] + COc1cc(N2CCC(N3CCN(C)CC3)CC2)ccc1Nc1ncc(Cl)c(Nc2ccccc2S(=O)(=O)C(C)C)n1 [NVP-TAE684] (first compound 0.05 µM, partner dose 0.4 µM): the cell count turned out to be 66.8%.

`C[C@@H]1CCN(C(=O)CC#N)C[C@@H]1N(C)c1ncnc2[nH]ccc12` + CCCCCCCCCCCC1=C(O)C(=O)C=C(O)C1=O [Embelin] (first compound 5 µM, partner dose 6 µM) came in with a cell count of 130%.

`C[C@@H]1CCN(C(=O)CC#N)C[C@@H]1N(C)c1ncnc2[nH]ccc12` + Cc1cc([N+](=O)[O-])ccc1NS(=O)(=O)c1cc(Cl)ccc1Cl [FH535] (first compound 5 µM, partner dose 5 µM) displayed a cell count of 83%.

`O=c1[nH]nc(Sc2ncc([N+](=O)[O-])s2)n1-c1ccc2c(c1)OCCO2` + COc1ccc(COc2ccc(Cc3cnc(N)nc3N)cc2OC)cc1 [GW2580] (first compound 1 µM, partner dose 5 µM) registered a cell count of 93.9%.

As for `O=C(O)c1ccc(-c2c[nH]c3ncc(-c4ccccc4)cc23)cc1C1CCCC1` + Oc1cc(-c2nc(-c3ccccc3)[nH]c2-c2ccncc2)ccc1Cl [L779450] (first compound 0.8 µM, partner dose 1 µM), the cell count is 64.7%.

In the case of `CC1(C)NC(=O)N(c2ccc([N+](=O)[O-])c(C(F)(F)F)c2)C1=O` [nilutamide] + COc1ccc(-c2ccc3c(N4CCOCC4)nc(N4C[C@@H](C)O[C@@H](C)C4)nc3n2)cc1CO [KU0063794] (first compound 5 µM, partner dose 0.1 µM), the cell count was 73.7%.

Take `O=c1[nH]nc(Sc2ncc([N+](=O)[O-])s2)n1-c1ccc2c(c1)OCCO2` + C[C@@H](Oc1cc(-c2cnn(C3CCNCC3)c2)cnc1N)c1c(Cl)ccc(F)c1Cl [Crizotinib] (first compound 1 µM, partner dose 1 µM): the cell count is 71.9%.

Turning to `O=C(Nc1cccc(Cl)c1)Nc1ncc(CCNc2ncnc3ccsc23)s1` + Cc1cc([N+](=O)[O-])ccc1NS(=O)(=O)c1cc(Cl)ccc1Cl [FH535] (first compound 0.004 µM, partner dose 5 µM), the cell count was 69.8%.
